# Test results taken from PubChem BioAssay AID248 (DTP/NCI, 2004).
# Inconclusive results and toxic doses are left out. A number of entries come with more than one value. Only these are listed. The source may hold further records. Results that share an entry differ for a reason that is not stated; some may be repeats, others may stem from another dose, organism or construct than stated.
# System: L1210 leukemia ip in BDF1 mice, survival T/C
# Experiment: NCI In Vivo Anticancer Drug Screen. Data for tumor model L1210 Leukemia (intraperitoneal) in B6D2F1 (BDF1) mice
# Details: endpoint: mean survival time; dose: 200.0 mg/kg/injection; schedule: Q01DX009 (ip); vehicle: other; higher = longer survival
smiles,measurement,value
S=c1cccn[nH]1,T/C,"93 % of control, 100 % of control, 406 % of control"
